Reference: PubChem BioAssay AID2528 (National Center for Advancing Translational Sciences (NCATS), 2010)
Hit rate of the full screen: of about 350,000 compounds, about 700 (0.2%) were called active. Calls follow the shape of the dose curve; as a rule, active = well fitted inhibition curve with a large enough effect; inconclusive = small, poorly fitted or top-dose-only effect; inactive = flat fitted curve, though single readings scatter. The list shows a part of the results, in another mix than the full data.

Target: RecQ-like DNA helicase BLM (Homo sapiens) (UniProt P54132)
Experiment: qHTS Assay for Inhibitors of Bloom's syndrome helicase (BLM); also: nearly all actives have a fitted effect of over 35% in size
Settings: recombinant BLM DNA unwinding, fluorescence dequenching; series mostly up to 56.1 µM; activity change, negative = inhibition: at the top concentration
Excerpt: Survival of cells and the faithful propagation of the genome depend on elaborate mechanisms of detecting and repairing DNA damage. Treatment of advanced cancer relies on radiation therapy or chemotherapy, which kill cancer cells by causing extensive DNA damage. It is often found, that cancer cells develop resistance to therapy through enhanced activity of DNA repair functions; this has led to an increased interest in developing drugs that interfere with DNA repair, which could sensitize cancer cells to conventional therapy.
This validation qHTS assay pertains to human BLM, which is important in resolving abnormal DNA structures formed during replication or homologous recombination. Shutting down the expression of BLM leads to chromosomal instability and higher radiation sensitivity in cultured cells.
The validation assay was a fluorescence quenching based kinetic qHTS for BLM Helicase DNA unwinding. The activity was measured as ATP-dependent separation of a 20-bp DNA duplex extended by 30-nt single-stranded tails (forked duplex). The forked DNA substrate was tagged with rhodamine fluorophore (carboxytetramethyl rhodamine, TAMRA) and BHQ-2 (Black Hole Quencher 2) dark quencher. Strand separation results in an increase in the fluorescence of TAMRA (excitation 525 nm, emission 598 nm). This substrate construct operates in a red-shifted region where very few compound library members have been noted to fluoresce (PubChem AIDs 593 and 594). An additional feature of the assay is the inclusion of 2.5 ug/ml poly (dIdC), to reduce interference by compounds such as DNA intercalators, a major source of false inhibitors.
Ian Hickson, University of Oxford
Opher Gileadi, Structural Genomics Consortium, University of Oxford
Screening Center PI: Austin, C.P.
Screening Center: NIH Chemical Genomics Center [NCGC]
Three uL of reaction buffer (25 mM Tris-HCl (pH 8.0), 5 mM NaCl, 2 mM MgCl2, 1mM DTT, 0.01% Tween- 20, and 2.5 ug/ml poly(dI-dC), including enzyme (50 nM BLM), were dispensed into a 1536-well Greiner black assay plate via solenoid-valve based nanoliter dispensers. Compounds (23 nl each in columns 5-48) and control (23 nl each in column 2 as dose-response) were transferred via a Kalypsys pintool equipped with a 1536-pin array. The plates were incubated for 15 min at room temperature, and then 1 ul of substrates (200 nM DNA and 2 mM ATP, final concentrations) was added to start the reaction. The plate was transferred into a ViewLux high-throughput CCD imager where the reaction progress was measured in a discontinuous kinetic mode (two reads spaced 2 hours apart, with intermediate room temperature incubation of the covered assay plate) by using standard red-fluorescence optics (excitation filter 525 nm, emission filter 598 nm). Enzyme-free and vehicle (DMSO) controls were included for signal normalization.
Potency is read from the fitted curve at half-maximal effect.

Chain of UniProt P54132 (P54132 whole entry, looked up): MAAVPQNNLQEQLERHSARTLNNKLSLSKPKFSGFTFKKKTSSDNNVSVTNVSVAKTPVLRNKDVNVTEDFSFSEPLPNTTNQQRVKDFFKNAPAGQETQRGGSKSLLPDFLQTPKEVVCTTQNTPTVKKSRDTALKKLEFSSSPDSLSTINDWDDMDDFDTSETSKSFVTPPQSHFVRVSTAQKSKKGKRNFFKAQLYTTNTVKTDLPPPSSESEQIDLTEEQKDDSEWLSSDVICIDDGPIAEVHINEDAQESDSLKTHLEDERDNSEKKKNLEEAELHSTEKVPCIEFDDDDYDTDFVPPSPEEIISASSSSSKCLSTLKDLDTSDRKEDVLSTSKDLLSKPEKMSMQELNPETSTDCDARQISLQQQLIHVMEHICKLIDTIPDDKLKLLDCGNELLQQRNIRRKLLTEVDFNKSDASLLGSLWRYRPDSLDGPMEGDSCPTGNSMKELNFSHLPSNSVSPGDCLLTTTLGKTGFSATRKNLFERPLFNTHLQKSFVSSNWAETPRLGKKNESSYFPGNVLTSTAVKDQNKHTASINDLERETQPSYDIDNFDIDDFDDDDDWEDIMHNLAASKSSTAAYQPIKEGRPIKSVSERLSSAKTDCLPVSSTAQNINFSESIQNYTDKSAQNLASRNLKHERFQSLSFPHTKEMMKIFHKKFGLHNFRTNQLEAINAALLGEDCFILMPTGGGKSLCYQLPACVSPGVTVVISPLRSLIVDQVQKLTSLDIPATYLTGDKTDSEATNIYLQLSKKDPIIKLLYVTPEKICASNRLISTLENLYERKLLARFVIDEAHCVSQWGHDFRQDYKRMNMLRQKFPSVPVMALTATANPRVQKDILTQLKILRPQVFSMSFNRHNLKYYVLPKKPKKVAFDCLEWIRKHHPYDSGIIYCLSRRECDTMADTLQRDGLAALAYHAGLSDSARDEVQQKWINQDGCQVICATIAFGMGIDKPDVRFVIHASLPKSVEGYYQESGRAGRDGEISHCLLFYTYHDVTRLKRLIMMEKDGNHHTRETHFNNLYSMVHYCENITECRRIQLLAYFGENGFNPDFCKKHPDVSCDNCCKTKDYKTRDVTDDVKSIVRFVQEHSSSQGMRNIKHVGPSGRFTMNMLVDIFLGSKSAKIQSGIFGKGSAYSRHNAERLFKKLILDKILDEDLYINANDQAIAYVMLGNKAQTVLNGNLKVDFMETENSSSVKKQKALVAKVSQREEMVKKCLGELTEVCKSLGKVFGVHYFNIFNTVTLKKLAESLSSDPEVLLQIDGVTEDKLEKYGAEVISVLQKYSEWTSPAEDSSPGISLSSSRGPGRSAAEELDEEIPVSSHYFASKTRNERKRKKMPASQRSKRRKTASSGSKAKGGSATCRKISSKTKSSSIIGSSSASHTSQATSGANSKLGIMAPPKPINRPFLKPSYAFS

SMILES | Potency | activity change, negative = inhibition
Fc1ccc(C(OCCN2CCN(CCCc3ccccc3)CC2)c2ccc(F)cc2)cc1 | inactive | 
COC(=O)[C@@H](N)CCCN=C(N)N[N+](=O)[O-] | inactive | 
CC(C)C[C@H]1C(=O)N2CCCC2[C@]2(O)O[C@](NC(=O)[C@@H]3C=C4c5cccc6[nH]c(Br)c(c56)C[C@H]4N(C)C3)(C(C)C)C(=O)N12 (stereo partly drawn) |  | inactive: -8.88%
C=C(C)C1CNC(C(=O)O)C1CC(=O)O (stereo not drawn) |  | inactive: 2.71%
CNCCc1c[nH]c2ccc(O)cc12 |  | inactive: 0.493%
CCN1/C(=C\C=C\C2=[N+](CC)c3ccccc3C2(C)C)C(C)(C)c2ccccc21 | active: 7.94 µM | 
COc1ccc(Cc2nccc3cc(OC)c(OC)cc23)cc1OC | inactive | 
CC(C)(O)[C@@H]1[C@H]2OC(=O)[C@@H]1[C@]1(O)C[C@H]3O[C@]34C(=O)O[C@H]2[C@@]14C (tested in a mixture with another compound) |  | inactive: 3.4%
O=C1NC(=S)NC(=O)C1=Cc1ccc2c(c1)CCN2CCCCl | active: 15.8 µM | 
CN1CCCC1c1cccnc1 (stereo not drawn) |  | inactive: 5.39%
COc1ccc2c(c1OC)C(=O)O[C@@H]2C1c2cc3c(cc2CCN1C)OCO3 (stereo partly drawn) |  | inactive: -1.26%
O[C@@H]1CCCC[C@H]1N1CCC(c2ccccc2)CC1 | inactive | 
O=C1CCCN1CC#CCN1CCCC1 | inactive | 
C[C@]12N[C@H](Cc3ccccc31)c1ccccc12 |  | inactive: 1.44%
CCCN1CCCC2Cc3[nH]ncc3CC21 (stereo not drawn) |  | inactive: 4.33%
COc1ccc(OC)c(N2C(=O)/C(=C/c3ccco3)C(=O)NC2=S)c1 | active: 1.58 µM | 
N[C@H](CCCCCP(=O)(O)O)C(=O)O | inactive | 
C[n+]1c2ccccc2nc2ccc(NCCO)cc21 | active: 17.8 µM | 
COc1nc(C)nc(Cl)c1NC1=NCCN1 | inactive | 
CCn1cc(C(=O)O)c(=O)c2ccc(C)nc21 | inactive | 
CCC1C(=O)OC[C@H]1Cc1cncn1C (stereo partly drawn) |  | inactive: -12.3%
CC(C)(C)NCC(O)c1ccccc1Cl (stereo not drawn) |  | inactive: -7.82%
C[C@@H](Cc1ccc(OCC(=O)O)cc1)NC[C@H](O)c1cccc(Cl)c1 |  | inactive: 6.59%
O=C1NC(=S)N(c2ccc(F)cc2)C(=O)/C1=C/c1ccco1 | active: 3.16 µM | 

SMILES | Potency | activity change, negative = inhibition
CCC1C(=O)OCC1Cc1cncn1C (stereo not drawn) | inactive | 
CC[C@@H]1CN2CCc3cc(OC)c(OC)cc3[C@@H]2C[C@@H]1C[C@H]1NCCc2cc(OC)c(OC)cc21 |  | inactive: -9.45%
CC(C)NC[C@@H](O)COc1cccc2[nH]ccc12 | inactive | 
CNCC[C@H](Oc1ccc(C(F)(F)F)cc1)c1ccccc1 | inactive | 
C=C1C(=O)O[C@@H]2C[C@@H](C)[C@@H]3C=CC(=O)[C@@]3(C)[C@@H](OC(=O)CC(=O)O[C@H]3[C@@H]4C(=C)C(=O)O[C@@H]4C[C@@H](C)[C@@H]4C=CC(=O)[C@]43C)[C@H]12 | active: 22.4 µM | 
O=C1C(=O)c2ccccc2-c2ccccc21 | active: 20 µM | 
NC[C@@H]1O[C@H](O[C@H]2[C@H](O)[C@@H](O[C@H]3[C@H](O)[C@H](N)C[C@H](N)[C@H]3O[C@@H]3O[C@H](CO)[C@@H](O)[C@H](O)[C@@H]3N)O[C@H]2CO)[C@@H](N)[C@H](O)[C@@H]1O |  | inactive: 0.484% [at 21.4 µM]
CCCN(CCC)[C@@H]1CCc2cccc(O)c2C1 | inactive | 
COC(=O)C1=C(C)NC(C)=C(C(=O)OC)C1c1ccccc1[N+](=O)[O-] | inactive | 
COc1ccc(OC)c(N2C(=O)NC(=O)/C(=C\c3ccc([N+](=O)[O-])s3)C2=O)c1 | active: 15.8 µM | 
CNC(C)[C@H](O)c1ccccc1 (stereo partly drawn) |  | inactive: -12.7%
CCCCn1c(NC(=O)c2ccc(Br)o2)c(C(=O)OCC)c2nc3ccccc3nc21 | active: 22.4 µM | 
CN1CC[C@@]23CCCC[C@@H]2[C@@H]1Cc1ccc(O)cc13 |  | inactive: 3.52%
C=CCN1CC[C@]23c4c5ccc(O)c4OC2C(=O)CC[C@@]3(O)C1C5 (stereo partly drawn) |  | inactive: -2.31%
CNC(C)C(O)c1ccccc1 (stereo not drawn) |  | inactive: 4.62%
O=C(O[C@@H]1Cc2c(O)cc(O)cc2O[C@@H]1c1cc(O)c(O)c(O)c1)c1cc(O)c(O)c(O)c1 |  | inactive: -4.87%
CC[C@H]1CN2CCc3cc(OC)c(OC)cc3[C@@H]2C[C@@H]1C[C@H]1NCCc2cc(OC)c(OC)cc21 |  | inactive: -9.93%
Cc1ccc(N2C(=O)NC(=O)/C(=C\c3ccoc3)C2=O)cc1 |  | inactive: 3.4%
O=C1NC(=O)N(Cc2ccccc2)C(=O)/C1=C/C=C/c1ccco1 |  | inactive: -29.5%
Cc1ccc(N2C(=O)NC(=O)/C(=C/c3ccoc3)C2=O)cc1 | active: 15.8 µM | 
CCNC(=O)[C@H]1O[C@@H](n2cnc3c(N)ncnc32)[C@H](O)[C@@H]1O |  | inactive: -5.57%
Cc1cccc(C)c1NC1=NCCCS1 | inactive | 
COC(=O)N1CCN(C(=O)Cc2ccc(Cl)c(Cl)c2)[C@H](CN2CCCC2)C1 |  | inactive: 3.6%
C[N+]1(C)[C@@H]2CC[C@H]1CC(OC(=O)C(CO)c1ccccc1)C2 (stereo partly drawn) | inactive | 
